The supplement of paper PMC8728848
Some of the results follow.

Legend:
Test in all cases: glycan array binding signal (z-score within array); higher = stronger binding
Settings in all cases: glycan notation: IUPAC condensed, linker removed
[1] = biological target: Gal(b1-4)GlcNAc(b1-3)Gal(b1-4)GlcNAc(b1-3)Gal(b1-4)GlcNAc(b1-3)Gal(b1-4)GlcNAc(b1-2)Man(a1-3)[Gal(b1-4)GlcNAc(b1-3)Gal(b1-4)GlcNAc(b1-3)Gal(b1-4)GlcNAc(b1-3)Gal(b1-4)GlcNAc(b1-2)Man(a1-6)]Man(b1-4)GlcNAc(b1-4)[Fuc(a1-6)]GlcNAc
Method in brief: (§1)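 Negative Z-scores can be read as non-binding. The Z-score is calculated within each array and then averaged across arrays of one protein sequence at different concentrations or buffers and across linkers. Arrays, 3228 in all, were curated from the Consortium for Functional Glycomics database and kept only where the protein sequence was available.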

[2] = biological target: Gal(b1-4)GlcNAc(b1-3)Gal(b1-4)GlcNAc(b1-3)Gal(b1-4)GlcNAc(b1-3)Gal(b1-4)GlcNAc(b1-2)[Gal(b1-4)GlcNAc(b1-3)Gal(b1-4)GlcNAc(b1-3)Gal(b1-4)GlcNAc(b1-3)Gal(b1-4)GlcNAc(b1-6)]Man(a1-6)[Gal(b1-4)GlcNAc(b1-3)Gal(b1-4)GlcNAc(b1-3)Gal(b1-4)GlcNAc(b1-3)Gal(b1-4)GlcNAc(b1-2)Man(a1-3)]Man(b1-4)GlcNAc(b1-4)[Fuc(a1-6)]GlcNAc
Method in brief: as §1

[3] = biological target: Gal(b1-4)GlcNAc(b1-3)Gal(b1-4)GlcNAc(b1-3)Gal(b1-4)GlcNAc(b1-3)Gal(b1-4)GlcNAc(b1-3)Gal(b1-4)GlcNAc(b1-2)Man(a1-3)[Gal(b1-4)GlcNAc(b1-3)Gal(b1-4)GlcNAc(b1-3)Gal(b1-4)GlcNAc(b1-3)Gal(b1-4)GlcNAc(b1-3)Gal(b1-4)GlcNAc(b1-2)Man(a1-6)]Man(b1-4)GlcNAc(b1-4)GlcNAc
Method in brief: as §1

[4] = biological target: Gal(b1-4)GlcNAc(b1-3)Gal(b1-4)GlcNAc(b1-3)Gal(b1-4)GlcNAc(b1-3)Gal(b1-4)GlcNAc(b1-3)Gal(b1-4)GlcNAc(b1-2)Man(a1-3)[Gal(b1-4)GlcNAc(b1-3)Gal(b1-4)GlcNAc(b1-3)Gal(b1-4)GlcNAc(b1-3)Gal(b1-4)GlcNAc(b1-3)Gal(b1-4)GlcNAc(b1-2)Man(a1-6)]Man(b1-4)GlcNAc(b1-4)[Fuc(a1-6)]GlcNAc
Method in brief: as §1

[5] = biological target: Gal(b1-4)GlcNAc(b1-3)Gal(b1-4)GlcNAc(b1-3)Gal(b1-4)GlcNAc(b1-3)Gal(b1-4)GlcNAc(b1-3)Gal(b1-4)GlcNAc(b1-2)[Gal(b1-4)GlcNAc(b1-3)Gal(b1-4)GlcNAc(b1-3)Gal(b1-4)GlcNAc(b1-3)Gal(b1-4)GlcNAc(b1-3)Gal(b1-4)GlcNAc(b1-6)]Man(a1-6)[Gal(b1-4)GlcNAc(b1-3)Gal(b1-4)GlcNAc(b1-3)Gal(b1-4)GlcNAc(b1-3)Gal(b1-4)GlcNAc(b1-3)Gal(b1-4)GlcNAc(b1-2)Man(a1-3)]Man(b1-4)GlcNAc(b1-4)[Fuc(a1-6)]GlcNAc
Method in brief: as §1

[6] = biological target: Gal(b1-4)GlcNAc(b1-3)Gal(b1-4)GlcNAc(b1-3)Gal(b1-4)GlcNAc(b1-3)Gal(b1-4)GlcNAc(b1-3)Gal(b1-4)GlcNAc(b1-3)Gal(b1-4)GlcNAc(b1-2)Man(a1-3)[Gal(b1-4)GlcNAc(b1-3)Gal(b1-4)GlcNAc(b1-3)Gal(b1-4)GlcNAc(b1-3)Gal(b1-4)GlcNAc(b1-3)Gal(b1-4)GlcNAc(b1-3)Gal(b1-4)GlcNAc(b1-2)Man(a1-6)]Man(b1-4)GlcNAc(b1-4)GlcNAc
Method in brief: as §1

[7] = biological target: Gal(b1-4)GlcNAc(b1-3)Gal(b1-4)GlcNAc(b1-3)GalNAc
Method in brief: as §1

[8] = biological target: Gal(b1-4)GlcNAc(b1-3)Gal(b1-4)GlcNAc(b1-3)[Gal(b1-4)GlcNAc(b1-3)Gal(b1-4)GlcNAc(b1-6)]GalNAc
Method in brief: as §1

[9] = biological target: Gal(b1-4)GlcNAc(b1-3)Gal(b1-4)GlcNAc(b1-6)[Gal(b1-3)]GalNAc
Method in brief: as §1

[10] = biological target: Gal(b1-4)GlcNAc(b1-3)Gal(b1-4)[Fuc(a1-3)]GlcNAc(b1-3)Gal(b1-4)[Fuc(a1-3)]GlcNAc
Method in brief: as §1

[11] = biological target: Gal(b1-4)GlcNAc(b1-3)GalNAc
Method in brief: as §1

[12] = biological target: Gal(b1-4)GlcNAc(b1-3)[Fuc(a1-3)GlcNAc(b1-6)]Gal(b1-4)Glc
Method in brief: as §1

[13] = biological target: Gal(b1-4)GlcNAc(b1-3)[Gal(b1-4)GlcNAc(b1-6)]Gal(b1-4)GlcNAc
Method in brief: as §1

[14] = biological target: Gal(b1-4)GlcNAc(b1-3)[GlcNAc(b1-6)]Gal(b1-4)GlcNAc
Method in brief: as §1

[15] = biological target: Gal(b1-4)GlcNAc(b1-6)Gal(b1-4)GlcNAc
Method in brief: as §1

[16] = biological target: Gal(b1-4)GlcNAc(b1-6)GalNAc
Method in brief: as §1

[17] = biological target: Gal(b1-4)GlcNAc(b1-6)[Gal(b1-3)]GalNAc
Method in brief: as §1

[18] = biological target: Gal(b1-4)GlcNAc(b1-6)[Gal(b1-4)GlcNAc(b1-3)]GalNAc
Method in brief: as §1

Gal(b1-4)GlcNAc6P = biological target: Gal(b1-4)GlcNAc6P
Method in brief: as §1

Gal(b1-6)Gal = biological target: Gal(b1-6)Gal
Method in brief: as §1

Gal3S(b1-3)GalNAc = biological target: Gal3S(b1-3)GalNAc
Method in brief: as §1

Gal3S(b1-3)GlcNAc = biological target: Gal3S(b1-3)GlcNAc
Method in brief: as §1

[19] = biological target: Gal3S(b1-3)[Fuc(a1-4)]GlcNAc
Method in brief: as §1

Gal3S(b1-4)Glc = biological target: Gal3S(b1-4)Glc
Method in brief: as §1

Gal3S(b1-4)Glc6S = biological target: Gal3S(b1-4)Glc6S
Method in brief: as §1

Gal3S(b1-4)GlcNAc = biological target: Gal3S(b1-4)GlcNAc
Method in brief: as §1

[20] = biological target: Gal3S(b1-4)[Fuc(a1-3)]Glc6S
Method in brief: as §1

[21] = biological target: Gal3S(b1-4)[Fuc(a1-3)]GlcNAc
Method in brief: as §1

[22] = biological target: Gal3S(b1-4)[Fuc(a1-3)]GlcNAc6S
Method in brief: as §1

Gal3S4S(b1-4)GlcNAc = biological target: Gal3S4S(b1-4)GlcNAc
Method in brief: as §1

Gal3S6S(b1-4)GlcNAc = biological target: Gal3S6S(b1-4)GlcNAc
Method in brief: as §1

Gal3S6S(b1-4)GlcNAc6S = biological target: Gal3S6S(b1-4)GlcNAc6S
Method in brief: as §1

Gal4S(b1-4)GlcNAc = biological target: Gal4S(b1-4)GlcNAc
Method in brief: as §1

Gal4S6S(b1-4)GlcNAc = biological target: Gal4S6S(b1-4)GlcNAc
Method in brief: as §1

Gal6P(b1-4)GlcNAc = biological target: Gal6P(b1-4)GlcNAc
Method in brief: as §1

Gal6S(b1-3)GlcNAc = biological target: Gal6S(b1-3)GlcNAc
Method in brief: as §1

Gal6S(b1-3)GlcNAc6S = biological target: Gal6S(b1-3)GlcNAc6S
Method in brief: as §1

Gal6S(b1-4)Glc = biological target: Gal6S(b1-4)Glc
Method in brief: as §1

B1: Clec18C (Homo sapiens) (protein)
chain: MLHPETSPGRGHLLAVLLALLGTAWAEVWPPQLQEQAPMAGALNRKESFLLLSLHNRLRSWVQPPAADMRRLDWSDSLAQLAQARAALCGTPTPSLASGLWRTLQVGWNMQLLPAGLVSFVEVVSLWFAEGQRYSHAAGECARNATCTHYTQLVWATSSQLGCGRHLCSAGQAAIEAFVCAYSPRGNWEVNGKTIVPYKKGAWCSLCTASVSGCFKAWDHAGGLCEVPRNPCRMSCQNHGRLNISTCHCHCPPGYTGRYCQVRCSLQCVHGRLREEECSCVCDIGYGGAQCATKVHFPFHTCDLRIDGDCFMVSSEADTYYRARMKCQRKGGVLAQIKSQKVQDILAFYLGRLETTNEVIDSDFETRNFWIGLTYKTAKDSFRWATGEHQAFTSFAFGQPDNHGFGNCVELQASAAFNWNNQRCKTRNRYICQFAQEHISRWGPGS
[1]
  glycan array binding signal (z-score): -0.276
[2]
  glycan array binding signal (z-score): 2.21
[3]
  glycan array binding signal (z-score): 1.84
[4]
  glycan array binding signal (z-score): 3.34
[5]
  glycan array binding signal (z-score): 0.598
[6]
  glycan array binding signal (z-score): 0.31
[7]
  glycan array binding signal (z-score): -0.28
[8]
  glycan array binding signal (z-score): 0.156
[9]
  glycan array binding signal (z-score): -0.581
[10]
  glycan array binding signal (z-score): -0.106
[11]
  glycan array binding signal (z-score): 0.056
[12]
  glycan array binding signal (z-score): -0.356
[13]
  glycan array binding signal (z-score): 7.63
[14]
  glycan array binding signal (z-score): -0.059
[15]
  glycan array binding signal (z-score): -0.493
[16]
  glycan array binding signal (z-score): 0.277
[17]
  glycan array binding signal (z-score): 0.126
[18]
  glycan array binding signal (z-score): -0.181
Gal(b1-4)GlcNAc6P
  glycan array binding signal (z-score): 5.02
Gal(b1-6)Gal
  glycan array binding signal (z-score): -0.264
Gal3S(b1-3)GalNAc
  glycan array binding signal (z-score): -0.042
Gal3S(b1-3)GlcNAc
  glycan array binding signal (z-score): -0.492
[19]
  glycan array binding signal (z-score): -0.464
Gal3S(b1-4)Glc
  glycan array binding signal (z-score): -0.388
Gal3S(b1-4)Glc6S
  glycan array binding signal (z-score): -0.387
Gal3S(b1-4)GlcNAc
  glycan array binding signal (z-score): -0.019
[20]
  glycan array binding signal (z-score): -0.095
[21]
  glycan array binding signal (z-score): -0.38
[22]
  glycan array binding signal (z-score): -0.116
Gal3S4S(b1-4)GlcNAc
  glycan array binding signal (z-score): -0.589
Gal3S6S(b1-4)GlcNAc
  glycan array binding signal (z-score): 0.096
Gal3S6S(b1-4)GlcNAc6S
  glycan array binding signal (z-score): -0.4
Gal4S(b1-4)GlcNAc
  glycan array binding signal (z-score): -0.336
Gal4S6S(b1-4)GlcNAc
  glycan array binding signal (z-score): -0.359
Gal6P(b1-4)GlcNAc
  glycan array binding signal (z-score): -0.488
Gal6S(b1-3)GlcNAc
  glycan array binding signal (z-score): 0.042
Gal6S(b1-3)GlcNAc6S
  glycan array binding signal (z-score): -0.553
Gal6S(b1-4)Glc
  glycan array binding signal (z-score): 0.907
